# This is one part of the list.
# B1: Gal 3 (Homo sapiens), P17931 (protein)
# chain: MADNFSLHDALSGSGNPNPQGWPGAWGNQPAGAGGYPGASYPGAYPGQAPPGAYPGQAPPGAYHGAPGAYPGAPAPGVYPGPPSGPGAYPSSGQPSAPGAYPATGPYGAPAGPLIVPYNLPLPGGVVPRMLITILGTVKPNANILDFQRGNDVAFHFNPRFNENNRRVIVCNTKLDNNWGREEIQSVFPFESGKPFKIQVLVEPDHFKVAVNDAHLLQYNHRVKKLNEISKLGISGDIDLTSASYTMI
# Legend:
# Experiment in all cases: glycan array binding signal (z-score within array); higher = stronger binding
# Conditions in all cases: glycan notation: IUPAC condensed, linker removed; mutation: R186I
# Fuc(a1-2)Gal = molecular target: Fuc(a1-2)Gal
# In short: (§1)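 Glycan array data were curated from 3228 arrays in the Consortium for Functional Glycomics database and kept only where the protein sequence was available. Glycan names were converted to IUPAC-condensed notation, and columns mapping to the same glycan were averaged. The binding signal is a within-array Z-score, averaged across arrays of the same protein sequence at different concentrations or buffers and across linkers. Negative Z-scores can be read as non-binding.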
# Fuc(a1-2)Gal(b1-3)GalNAc = molecular target: Fuc(a1-2)Gal(b1-3)GalNAc
# In short: as §1
# [1] = molecular target: Fuc(a1-2)Gal(b1-3)GalNAc(a1-3)[Fuc(a1-2)]Gal(b1-4)Glc
# In short: as §1
# [2] = molecular target: Fuc(a1-2)Gal(b1-3)GalNAc(a1-3)[Fuc(a1-2)]Gal(b1-4)GlcNAc
# In short: as §1
# [3] = molecular target: Fuc(a1-2)Gal(b1-3)GalNAc(b1-3)Gal
# In short: as §1
# [4] = molecular target: Fuc(a1-2)Gal(b1-3)GalNAc(b1-3)Gal(a1-4)Gal(b1-4)Glc
# In short: as §1
# [5] = molecular target: Fuc(a1-2)Gal(b1-3)GalNAc(b1-4)[Neu5Ac(a2-3)]Gal(b1-4)Glc
# In short: as §1
# Fuc(a1-2)Gal(b1-3)GlcNAc = molecular target: Fuc(a1-2)Gal(b1-3)GlcNAc
# In short: as §1
# [6] = molecular target: Fuc(a1-2)Gal(b1-3)GlcNAc(b1-2)Man(a1-3)[Fuc(a1-2)Gal(b1-3)GlcNAc(b1-2)Man(a1-6)]Man(b1-4)GlcNAc(b1-4)GlcNAc
# In short: as §1
# [7] = molecular target: Fuc(a1-2)Gal(b1-3)GlcNAc(b1-3)Gal(b1-4)Glc
# In short: as §1
# [8] = molecular target: Fuc(a1-2)Gal(b1-3)GlcNAc(b1-3)[Fuc(a1-3)[Gal(b1-4)]GlcNAc(b1-6)]Gal(b1-4)Glc
# In short: as §1
# [9] = molecular target: Fuc(a1-2)Gal(b1-3)[Fuc(a1-4)]GlcNAc
# In short: as §1
# [10] = molecular target: Fuc(a1-2)Gal(b1-3)[Fuc(a1-4)]GlcNAc(b1-2)Man(a1-3)[Fuc(a1-2)Gal(b1-3)[Fuc(a1-4)]GlcNAc(b1-2)Man(a1-6)]Man(b1-4)GlcNAc(b1-4)GlcNAc
# In short: as §1
# [11] = molecular target: Fuc(a1-2)Gal(b1-3)[Fuc(a1-4)]GlcNAc(b1-3)[Fuc(a1-3)[Gal(b1-4)]GlcNAc(b1-6)]Gal(b1-4)Glc
# In short: as §1
# [12] = molecular target: Fuc(a1-2)Gal(b1-3)[Fuc(a1-4)]GlcNAc(b1-3)[Gal(b1-4)GlcNAc(b1-6)]Gal(b1-4)Glc
# In short: as §1
# Fuc(a1-2)Gal(b1-4)Glc = molecular target: Fuc(a1-2)Gal(b1-4)Glc
# In short: as §1
# Fuc(a1-2)Gal(b1-4)Glc6S = molecular target: Fuc(a1-2)Gal(b1-4)Glc6S
# In short: as §1
# Fuc(a1-2)Gal(b1-4)GlcNAc = molecular target: Fuc(a1-2)Gal(b1-4)GlcNAc
# In short: as §1
# [13] = molecular target: Fuc(a1-2)Gal(b1-4)GlcNAc(b1-2)Man(a1-3)[Fuc(a1-2)Gal(b1-4)GlcNAc(b1-2)Man(a1-6)]Man(b1-4)GlcNAc(b1-4)GlcNAc
# In short: as §1
# [14] = molecular target: Fuc(a1-2)Gal(b1-4)GlcNAc(b1-3)Gal(b1-4)GlcNAc
# In short: as §1
# [15] = molecular target: Fuc(a1-2)Gal(b1-4)GlcNAc(b1-3)Gal(b1-4)GlcNAc(b1-3)Gal(b1-4)GlcNAc
# In short: as §1
# [16] = molecular target: Fuc(a1-2)Gal(b1-4)GlcNAc(b1-3)GalNAc
# In short: as §1
# [17] = molecular target: Fuc(a1-2)Gal(b1-4)GlcNAc6S
# In short: as §1
# [18] = molecular target: Fuc(a1-2)Gal(b1-4)[Fuc(a1-3)]GlcNAc
# In short: as §1
# [19] = molecular target: Fuc(a1-2)Gal(b1-4)[Fuc(a1-3)]GlcNAc(b1-2)Man(a1-3)[Fuc(a1-2)Gal(b1-4)[Fuc(a1-3)]GlcNAc(b1-2)Man(a1-6)]Man(b1-4)GlcNAc(b1-4)GlcNAc
# In short: as §1
# [20] = molecular target: Fuc(a1-2)Gal(b1-4)[Fuc(a1-3)]GlcNAc(b1-3)Gal(b1-4)[Fuc(a1-3)]GlcNAc
# In short: as §1
# [21] = molecular target: Fuc(a1-2)Gal(b1-4)[Fuc(a1-3)]GlcNAc(b1-3)Gal(b1-4)[Fuc(a1-3)]GlcNAc(b1-3)Gal(b1-4)[Fuc(a1-3)]GlcNAc
# In short: as §1
# Fuc(a1-2)Gal6S(b1-4)Glc = molecular target: Fuc(a1-2)Gal6S(b1-4)Glc
# In short: as §1
# [22] = molecular target: Fuc(a1-2)Gal6S(b1-4)Glc6S
# In short: as §1
# [23] = molecular target: Fuc(a1-2)Gal6S(b1-4)GlcNAc
# In short: as §1
binder,measurement,setting,value
B1,glycan array binding signal (z-score),Fuc(a1-2)Gal,-0.161
same,glycan array binding signal (z-score),Fuc(a1-2)Gal(b1-3)GalNAc,-0.183
same,glycan array binding signal (z-score),[1],-0.168
same,glycan array binding signal (z-score),[2],-0.176
same,glycan array binding signal (z-score),[3],-0.188
same,glycan array binding signal (z-score),[4],-0.055
same,glycan array binding signal (z-score),[5],-0.187
same,glycan array binding signal (z-score),Fuc(a1-2)Gal(b1-3)GlcNAc,-0.17
same,glycan array binding signal (z-score),[6],-0.18
same,glycan array binding signal (z-score),[7],0.493
same,glycan array binding signal (z-score),[8],-0.187
same,glycan array binding signal (z-score),[9],-0.187
same,glycan array binding signal (z-score),[10],-0.033
same,glycan array binding signal (z-score),[11],-0.123
same,glycan array binding signal (z-score),[12],-0.194
same,glycan array binding signal (z-score),Fuc(a1-2)Gal(b1-4)Glc,0.019
same,glycan array binding signal (z-score),Fuc(a1-2)Gal(b1-4)Glc6S,-0.173
same,glycan array binding signal (z-score),Fuc(a1-2)Gal(b1-4)GlcNAc,-0.174
same,glycan array binding signal (z-score),[13],2.01
same,glycan array binding signal (z-score),[14],-0.118
same,glycan array binding signal (z-score),[15],-0.171
same,glycan array binding signal (z-score),[16],-0.081
same,glycan array binding signal (z-score),[17],-0.174
same,glycan array binding signal (z-score),[18],-0.13
same,glycan array binding signal (z-score),[19],-0.181
same,glycan array binding signal (z-score),[20],-0.145
same,glycan array binding signal (z-score),[21],-0.191
same,glycan array binding signal (z-score),Fuc(a1-2)Gal6S(b1-4)Glc,-0.189
same,glycan array binding signal (z-score),[22],-0.195
same,glycan array binding signal (z-score),[23],-0.189

# Source: the supplement of paper PMC8728848
